# Test results from PubChem BioAssay AID624296 (National Center for Advancing Translational Sciences (NCATS), 2012).
# Among all 350,000 compounds or so, about 9,900 (2.8%) were called active. Inconclusive means that the source gave no clear call. Such entries were picked first, then a sample of the others. Calls come from the whole dose curve; as a rule, active = well fitted activation curve with a large enough effect; inconclusive = small, poorly fitted or top-dose-only effect; inactive = no such curve, though single readings can be large or run the other way. Potencies of inconclusive entries are left out as doubtful fits. The source holds several records for some structures; these can differ, active in one and inactive in another.
# Assay: A quantitative high throughput screen for small molecules that induce DNA re-replication in MCF 10a normal breast cells. Note: nearly all actives have a fitted effect of over 50% in size.
# Conditions: MCF 10A DNA re-replication, Hoechst nuclear intensity, 48 h; series mostly up to 46.1 µM
# Potency is the fitted concentration of half-maximal effect; tags give direction and shape of the fitted curve.
row,Compound,Potency
1,Cc1cc(C)c[n+](CC(=O)c2ccc(C)c([N+](=O)[O-])c2)c1,"inconclusive [activator, single point]"
2,COC(=O)Cc1ccc(NC(=O)c2ccc3c(c2)C(=O)N(Cc2ccco2)C3=O)cc1,"inconclusive [activator, single point]"
3,CCCCn1nnc(NC(=O)COc2ccc(Cl)c(C)c2)n1,inactive
4,COc1ccc(OCc2nc3c4c(ncn3n2)-c2ccccc2CC42CCCC2)cc1,inactive
5,COc1ccc(C)cc1NC(=O)c1cccc(-c2ccc(OC(C)=O)cc2)c1,"inconclusive [activator, partial curve]"
6,Cc1ccc(Cn2nc(-c3ccccc3)nc2-c2ccccc2)cc1,"inconclusive [activator, single point]"
7,COC(=O)Cn1c(=O)c2c(nc(Br)n2Cc2ccccc2Cl)n(C)c1=O,inactive
8,O=[N+]([O-])c1cc(Br)c(Nc2ccccc2)c([N+](=O)[O-])c1,"inconclusive [activator, partial curve, poor fit]"
9,N#Cc1ccc(OCC(=O)OCC(=O)NC2CC2)cc1,inactive
10,C=C1CCC[C@]2(C)C[C@H]3OC(=O)C(CN4CCCCC4CO)[C@H]3CC12 (some centres not stated),"inconclusive [activator, single point]"
11,CN(C)S(=O)(=O)c1cccc(N=C2NN=C(c3ccccc3)CS2)c1,inactive
12,C=CCNC(=O)/C(C#N)=C/c1ccccc1[N+](=O)[O-],inactive
13,O=C(COC(=O)c1ccccc1NS(=O)(=O)c1cccs1)NCC12CC3CC(CC(C3)C1)C2,"inconclusive [activator, single point]"
14,CC(C)(C)c1ccc(C(=O)C2CCCN(C(=O)CN3CCCC3=O)C2)cc1 (configuration not stated),inactive
15,CCCc1nnc(NC(=O)c2oc3ccccc3c2COCC)s1,"inconclusive [activator, single point]"
16,CCOC(=O)c1ccc(N=C2SC(C(=O)NC)CC(=O)N2Cc2ccc(F)cc2)cc1 (configuration not stated),"inconclusive [activator, single point]"
17,CCN(CC)C(=O)CSc1nnc(-c2ccccc2)c(-c2ccccc2)n1,"inconclusive [activator, partial curve, poor fit]"
18,Oc1c(Br)cc(C2N=C(c3ccccc3Cl)NO2)cc1Br (configuration not stated),"inconclusive [activator, partial curve]"
19,O=c1c(-c2ccc3c(c2)OCCO3)c(C(F)(F)F)oc2cc(O)cc(O)c12,"inconclusive [activator, single point]"
20,CN(C(=O)c1cccc(NC(=O)Cc2cccc(NC(=O)C3CCCN(C(=O)C4CC4)C3)c2)c1)C1CC1 (configuration not stated),"inconclusive [activator, full curve, poor fit]"
21,Cc1ccc(OCC(=O)N/N=C\c2ccc(-c3cccc(C(=O)O)c3)o2)c(C)c1,"inconclusive [activator, partial curve]"
22,CCN(CCCNC(=O)Cn1ncc2c(=O)oc3ccccc3c21)c1cccc(C)c1,"inconclusive [activator, partial curve, poor fit]"
23,COc1ccc(OC)c(S(=O)(=O)NCC(=O)O)c1,inactive
24,S=c1[nH]c2cnccc2n1Cc1ccccc1,inactive

row,Compound,Potency
1,O=C(CCCCCNC(=O)N1CCn2c1nc1ccccc12)NCc1ccc(Cl)cc1,inactive
2,CCCCN1C=C(C(=O)OC)C(c2ccccc2C(F)(F)F)C(C(=O)OC)=C1,active: 2.91 µM
3,CCC(C)NC(=O)c1ccc(CS(=O)(=O)Cc2ccc(Cl)cc2)o1 (configuration not stated),"inconclusive [activator, full curve, poor fit]"
4,Nc1ccc(S(=O)C(F)(F)F)cc1 (configuration not stated),inactive
5,CCCCNC(=O)/C(C#N)=C/c1ccc(-c2ccc(S(=O)(=O)N3CCOCC3)cc2)o1,"inconclusive [activator, single point]"
6,O=C(CN(c1cccc([N+](=O)[O-])c1)S(=O)(=O)c1ccccc1)N1CCCCC1,inactive
7,C=CCN=c1scc(-c2ccccc2)n1/N=C/c1ccccn1,"inconclusive [activator, single point]"
8,Cn1c(-[n+]2c(-c3ccccc3)cc(-c3ccccc3)cc2-c2ccccc2)nc2c([N+](=O)[O-])cccc21,"inconclusive [activator, single point]"
9,O=C1C=C(NCc2ccco2)CCC1,inactive
10,CCN(CC)C(=O)c1cn(CCC#N)nc1-c1ccc2ccccc2c1,inactive
11,COc1cc(C(=S)N2CCN(c3cccc(Cl)c3)CC2)ccc1O,active: 14.6 µM
12,CC1=NC(=O)C(N=Nc2cccc(O)c2)N1c1ccccc1 (configuration not stated),"inconclusive [activator, partial curve, poor fit]"
13,O=C(NCCc1ccc(F)cc1)c1coc(=O)c(Br)c1,active: 4.11 µM
14,NC(=O)CSc1nc2scc(-c3ccc(Cl)cc3)c2c(=O)n1Cc1ccccc1,"inconclusive [activator, single point]"
15,CCN(CC)S(=O)(=O)c1ccc(NC(=S)NC(=O)CC(C)C)cc1,"inconclusive [activator, partial curve, poor fit]"
16,Cc1cc(O)c(-c2cc(C(=O)Nc3ccc(S(=O)(=O)N4CCOCC4)cc3)[nH]n2)cc1C,"inconclusive [activator, single point]"
17,CC(=O)NC(c1ccccc1)c1nc2ccccc2[nH]1 (configuration not stated),"inconclusive [activator, partial curve, poor fit]"
18,CCN(CC(=O)NC1CCS(=O)(=O)C1)S(=O)(=O)c1ccc(Cl)cc1C(F)(F)F (configuration not stated),inactive
19,CCn1c(=NC(=O)CS(=O)(=O)c2ccccc2)sc2cccc(OC)c21,"inconclusive [activator, single point]"
20,CCOC(=O)N1CCC(=C2c3ccc(Cl)cc3CCc3cccnc32)CC1,active: 23.1 µM
21,CCCCC(O)(CCCC)C(=O)NN(C(=O)CCl)c1ccccc1,"inconclusive [activator, single point]"
22,O=C(Nc1cccc2ncccc12)c1ccc(-c2ccc(Br)cc2)o1,inactive
23,Cc1ccc(SCCN2CCC(O)CCC2=O)cc1 (configuration not stated),inactive
24,O=C(CCc1ccccc1)NC1CCCc2ccccc21 (configuration not stated),inactive

row,Compound,Potency
1,CCc1ccc(OC)c(S(=O)(=O)Nc2ccc(Cc3ccncc3)cc2)c1,"inconclusive [activator, single point]"
2,Cc1cc(OC(C)C)nc(NCc2ccccc2)n1,"inconclusive [activator, single point]"
3,O=C(NCC1CC1)c1ccc2c(c1)S(=O)(=O)c1cc(Cl)ccc1C2=O,"inconclusive [activator, full curve, poor fit]"
4,C=CCNc1nc(NCc2ccccc2)nc(OCC)n1,"inconclusive [activator, single point]"
5,Nc1nc(Nc2ccccc2F)nc(NCc2ccco2)c1[N+](=O)[O-],"inconclusive [activator, single point]"
6,COc1ccc(CN(C)S(=O)(=O)c2c(C)noc2C)cc1OC,inactive
7,COc1ccc(-c2cc(C(=O)Nc3c(C)n(C)n(-c4ccccc4)c3=O)c3ccccc3n2)c(OC)c1,inactive
8,Cc1ccc(N/C(N)=N/c2nc(C)cc(N3CCCCC3)n2)c(C)c1,active: 18.4 µM
9,O=C(NCCN1CCOCC1)c1cnn2c1NC(c1cccs1)CC2C(F)(F)F (configuration not stated),"inconclusive [activator, single point]"
10,COc1ccc(OC)c(-c2csc(NC(=O)CN3C(=O)C4CCCCC4C3=O)n2)c1 (configuration not stated),inactive
11,OC1(c2ccccc2)c2ccccc2-c2ncccc21 (configuration not stated),inactive
12,Cc1cccc(-n2c(Cc3ccccc3)nnc2SCc2ccc([N+](=O)[O-])cc2)c1,"inconclusive [activator, partial curve]"
13,OC(CN1CCCCCC1)CN(c1ccccc1)c1ccccc1 (configuration not stated),inactive
14,O=C(COc1ccc(C(=S)N2CCCC2)cc1)Nc1ccccc1C(F)(F)F,"inconclusive [activator, single point]"
15,CC(NC(=O)CCc1ccccc1)c1cc2c(cc1Cl)OCCO2 (configuration not stated),"inconclusive [activator, single point]"
16,CCOc1ccc(/C=C2\SC(=S)N(NS(=O)(=O)c3ccc(C)cc3)C2=O)cc1OC,"inconclusive [activator, single point]"
17,NC(=O)CC[C@H](NC(=O)c1ccc(F)cc1)C(=O)OCC(=O)NCc1ccc2c(c1)OCO2,inactive
18,CN1C(=O)/C(=C/c2cccc(Cl)c2)Sc2ccc(C(=O)N3CCCC3)cc21,"inconclusive [activator, single point]"
19,COc1ccc2[nH]c(C)c(CCNC(=S)Nc3ccccc3C)c2c1,"inconclusive [activator, partial curve, poor fit]"
20,COc1cc(NC(=O)c2cc([N+](=O)[O-])ccc2NC(=O)CNCc2ccccn2)cc(OC)c1,"inconclusive [activator, single point]"
21,COc1ccc(S(=O)(=O)N2CCOCC2)cc1N=Nc1sc(N)nc1-c1ccccc1,inactive
22,CCOC(=O)N1CCN(C(=O)c2ccc3oc(CCCc4ccccc4)nc3c2)CC1,inactive
23,C/C(=N\NC(=O)c1ccccc1)c1nc2ccccc2n1C,inactive
24,C(=C\c1sc(Nc2ccccc2)n[n+]1-c1ccccc1)/c1ccccc1,"inconclusive [activator, single point]"
